Source: the supplement of paper PMC10126150
Values marked as one replicate rest on one cluster of the flow cell; about a third of the high ones do not repeat.

Test system: ATP
Assay: switch fluorescence ratio, 500 uM ATP over buffer (Cy3 cluster intensity, sum of 5 cycles each) (fold (ratio)); higher = stronger signal-on switching upon ATP binding; sequences stand for … in TCGTCGGCAGCGTCAGATGTGTATAAGAGACAGTTTTTTTTTTTTTTTTTTTTTTTTT…TC
Settings: aptamer strand: ATP DNA aptamer (quencher-CACCTGGGGGAGTATTGCGGAGGAAGG + anchor), 100 nM annealed; ATP concentration: 500 uM; one replicate
Method in brief: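 Cy3-labelled switching-strand clusters on a modified Illumina MiSeq flow-cell were annealed to 100 nM quencher-labelled ATP aptamer and imaged first in selection buffer, then after 15 min with 500 uM ATP at 22 °C. NaOH stripping and re-annealing separated each of five buffer/ATP cycles, and clusters outside 100-1000 RFU were excluded. The fluorescence ratio sums target-cycle Cy3 intensity over buffer-cycle Cy3 intensity per cluster and averages it per switch-domain sequence.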
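Further: ATP exposure 15 min at 22 °C before imaging.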

Sequence	switch fluorescence ratio
AAGCATTGTC	0.977
GAGGACGCTG	0.931
AATGAGTTAA	0.946
ATGGCAGAGG	0.995
CAGGAACGTG	0.997
TCGGGAGCCA	0.986
TCGGGTGATC	1.01
GGGCACCCTG	1.03
TAGCTGTATC	1.05
GAGTAGTGAG	0.955
ATACAATTAT	1.03
TTGAAGTTTG	0.995
ACACAATACG	2.56
CTAAGGGGTC	0.998
CCGGATGCCA	1.1
ACAGGCCACT	1.05
GAGTGTAGCC	1.07
TGGGTTCC	1.04
TAATCCCGCT	1.02
GTAGTGACAG	1.02
TGCGAAGGGC	1.01
CTTCATTCCG	2.1
ACCAGTCCCC	1.03

Sequence	switch fluorescence ratio
GGTGTGATA	1.03
ATCCTGTATG	0.989
ATCGAACCGA	1.05
GATTCAGTTG	1.02
TCGAGGCCGC	1.02
TTGGTGTTTC	0.936
GGGGCGTAAC	0.99
CGTACGAGAT	1
CCATGACTGC	0.982
GGGTGTTGGC	1
CATTTGAGAC	1.02
GGGAGGTCCG	1.11
CGCGATGCCA	1.1
GCTTCGGTTA	1.03
TGTCTTAAAT	1.01
CGTGCATGCA	0.931
TAAAGTGAAG	1.01
CGCCGGTCAA	1.12
CACTTATTAA	1.04
AGATGGACAG	0.969
GCATGTGGTA	1
AGTGATCATC	0.966
AACTTACAA	1.16

Sequence	switch fluorescence ratio
CCCGGGCTAG	1.06
ATTCTGTTGT	1.01
CATCCTGTCA	1.08
TTCGTCCGAC	2.37
CGCAGTGCGG	1.04
GTCGTTCTGG	1.02
ACAATGTCTT	0.989
CCCTGGGCGC	1.01
CGGCTTCTTG	1
ACGGGATCAA	1
CGGCACTTGC	1.07
GTAATGGG	1
GCGCTGACCG	1.03
ACGGGACGCC	1.11
CCGCGGGGAA	1.02
CGCGCGTTCA	0.967
ACGGGGATC	1.02
TGTGAGAGGA	0.962
CGTATACCT	0.984
CGGGCTAAAG	0.981
CGGGTGGAAG	1.02
ACTCGCGCCT	1.13
AGTCTAGGAA	0.988

Sequence	switch fluorescence ratio
GCCGATTCTC	0.96
GGAAGTTTAC	1.02
TAACGGGCGT	0.969
CGTGTGGGTA	1.03
ATGACTGACA	1.14
ACGCATGTTG	0.991
CGGGACTCTG	1.01
CTAATTGAA	0.978
AGGTACACTG	1.06
TTAGCTTGGA	1.01
TGGTGGCGGG	0.977
CGCGTATGTG	1.02
TGGGCCCCCC	1.06
AAGGGTGGTG	1.04
AGTTCGCCTT	1.14
TTCGACCGCG	0.958
ATTAACTAGG	0.984
ACGTATTCGC	1.02
AGAATCATTC	0.977
GTTGTCATCA	1
ATGCTTGGTC	1.04
ATTAATACA	0.981
CTGCACACAA	1.39

Sequence	switch fluorescence ratio
ATTATGCATT	1.35
TAGATATATT	1.02
AGGCGGGTGT	1.04
CCCACGCAGG	3.61
TTGGGCGAAA	1.02
TACCTGACTC	2.67
TATGGCCGTA	0.971
TCTAATTTAA	0.981
GGGGGCCGAA	1.01
ATAATCGACA	1.01
ATCAGGCGCG	1.01
TAGATTGTCC	1.05
CTCAACCATC	1.06
GAAGTCAGAC	1.12
GATGGGTCGG	0.936
GGTTCATGTA	1.03
TGGAGCCACG	1.04
GGAACCCGTC	1.13
ATACTACGGC	1.16
GACTGTGTCC	1
CACTCGCACG	1.28
ATACCAGCGG	1.02
AGATTTTGAG	1.01

Sequence	switch fluorescence ratio
TCCCACGTTT	0.99
TAAGAGTCGA	1.02
ATATGGGGG	0.959
CGCTACCTCA	1.56
GTCTAACATG	1
GTACTACTTG	1
TCTTGCGAGT	0.982
TTGAATTAAA	1
ACTACCTGGG	1.32
GCACGAAGGA	1.05
GACCATCCGA	1.37
GGCAGAAGTT	0.962
AACATAATTT	0.968
CAGAAACATA	1.03
GTAGGGGAAA	1.06
CTGAGCACTC	1.85
TCATTGACCG	1.02
TTATGTAGTG	0.946
CCTAGATAGA	1.04
GGCTGATCTA	0.989
GGTCTAGTTC	0.988
CAGTCGTTGG	1.05
TTCGCACTCA	1.27

Sequence	switch fluorescence ratio
TGTAATGCTC	1.68
AAGCCCGAAT	1
GGAGGCAATA	1.34
TTCAATGCCA	1.05
CAGAGGCTG	1.07
GATATATTAG	1
AAGAGAACAA	1.02
AACGGTACG	0.996
AGTCCTTTAA	0.954
GTTCCCTTCA	1.21
TGGGCCGTTG	1.01
TTGGGCTTCC	0.967
TGTATATGGC	1.02
CGTCAATGAC	1.97
TAGAGATGC	1.06
CCAGGAGTGA	1.09
CTGTCTCGGA	0.971
ACGCTCTCTT	1.03
AAAGGGCATT	1.03
